# Measured values taken from the supplement of paper PMC7826260.
# This is one part of the list. Viral Rep nickase domains cut single-stranded DNA in vitro (3 µM enzyme, 1 h, 37 °C); shown is the middle of each 90-letter strand. The score is log2 (uncut reads / reads without enzyme); the lower, the more was cut; hits are not called. The scaling is to total reads; where an enzyme cuts many sequences, the uncut ones exceed 0.
# Experiments:
# Assay in all cases: uncleaved DNA left, log2 of reads against the no-enzyme library (log2 ratio); higher = less cleavage (more negative = more Rep cleavage of the k-mer); sequences stand for … in CTCGTCCG…ACCGGAGA
# [1] = system: T1, Rep nickase domain of Muscovy duck circovirus
# T1 sequence (residues 1-111, tag not shown): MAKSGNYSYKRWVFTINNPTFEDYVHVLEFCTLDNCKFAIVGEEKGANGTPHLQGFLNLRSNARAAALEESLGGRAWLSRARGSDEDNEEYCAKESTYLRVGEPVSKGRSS
# Description: (§1)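 A pool of 90-nt single-stranded DNAs with seven random bases just before the constant AC of the nick site (name = the seven bases) was cut by 3 µM recombinant His6-SUMO-tagged Rep nickase domain (300 nM DNA, 50 mM HEPES pH 8.0, 50 mM NaCl, 1 mM MnCl2, 1 h, 37 °C, three replicates). Uncut DNA was amplified and sequenced.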
# [2] = system: T2, Rep nickase domain of banana bunchy top virus
# T2 sequence (residues 1-94, tag not shown): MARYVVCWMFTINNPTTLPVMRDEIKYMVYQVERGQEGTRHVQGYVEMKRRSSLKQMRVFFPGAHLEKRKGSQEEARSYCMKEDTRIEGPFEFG
# Description: as §1
# [3] = system: T3, Rep nickase domain of cabbage leaf curl virus
# T3 sequence (residues 1-116, tag not shown): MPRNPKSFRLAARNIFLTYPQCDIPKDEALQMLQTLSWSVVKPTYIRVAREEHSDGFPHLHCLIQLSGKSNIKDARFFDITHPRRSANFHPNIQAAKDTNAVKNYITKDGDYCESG
# Description: as §1
# [4] = system: T4, Rep nickase domain of chickpea chlorotic dwarf virus
# T4 sequence (residues 1-124, tag not shown): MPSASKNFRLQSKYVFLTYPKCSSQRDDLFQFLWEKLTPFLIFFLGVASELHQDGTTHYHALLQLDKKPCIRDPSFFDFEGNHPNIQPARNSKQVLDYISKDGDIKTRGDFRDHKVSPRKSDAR
# Description: as §1
# [5] = system: T5, Rep nickase domain of faba bean necrotic yellows virus
# T5 sequence (residues 1-98, tag not shown): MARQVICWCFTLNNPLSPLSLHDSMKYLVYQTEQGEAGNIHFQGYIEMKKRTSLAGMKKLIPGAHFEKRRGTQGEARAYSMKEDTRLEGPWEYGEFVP
# Description: as §1
# [6] = system: T6, Rep nickase domain of maize striate mosaic virus
# T6 sequence (residues 1-117, tag not shown): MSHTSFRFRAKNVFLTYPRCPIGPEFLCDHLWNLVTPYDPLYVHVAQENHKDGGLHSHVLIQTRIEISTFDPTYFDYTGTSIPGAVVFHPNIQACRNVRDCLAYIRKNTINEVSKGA
# Description: as §1
# [7] = system: T7, Rep nickase domain of porcine circovirus 2
# T7 sequence (residues 2-116, tag not shown): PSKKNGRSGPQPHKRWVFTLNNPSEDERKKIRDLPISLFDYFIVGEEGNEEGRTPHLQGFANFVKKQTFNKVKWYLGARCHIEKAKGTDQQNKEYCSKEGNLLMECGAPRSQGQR
# Description: as §1
# [8] = system: T8, Rep nickase domain of tomato golden mosaic virus
# T8 sequence (residues 1-124, tag not shown): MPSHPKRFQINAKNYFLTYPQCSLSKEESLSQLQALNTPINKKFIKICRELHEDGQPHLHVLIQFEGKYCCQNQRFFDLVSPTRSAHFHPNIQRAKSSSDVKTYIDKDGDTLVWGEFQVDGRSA
# Description: as §1
# [9] = system: T9, Rep nickase domain of tomato yellow leaf curl virus
# T9 sequence (residues 1-136, tag not shown): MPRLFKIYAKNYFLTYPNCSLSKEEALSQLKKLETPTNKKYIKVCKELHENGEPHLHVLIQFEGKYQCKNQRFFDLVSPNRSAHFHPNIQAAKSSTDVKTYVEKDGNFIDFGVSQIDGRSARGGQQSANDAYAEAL
# Description: as §1
# [10] = system: T10, Rep nickase domain of wheat dwarf virus
# T10 sequence (residues 1-137, tag not shown): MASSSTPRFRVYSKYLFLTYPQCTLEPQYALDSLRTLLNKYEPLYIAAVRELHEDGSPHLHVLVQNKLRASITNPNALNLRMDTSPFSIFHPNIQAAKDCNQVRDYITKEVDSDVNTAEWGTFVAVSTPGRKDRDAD
# Description: as §1
Sequence,uncleaved DNA left (log2) [1],uncleaved DNA left (log2) [2],uncleaved DNA left (log2) [3],uncleaved DNA left (log2) [4],uncleaved DNA left (log2) [5],uncleaved DNA left (log2) [6],uncleaved DNA left (log2) [7],uncleaved DNA left (log2) [8],uncleaved DNA left (log2) [9],uncleaved DNA left (log2) [10]
GCCTGGC,0.096,0.0434,0.0107,0.261,0.0687,-0.28,0.128,0.112,0.108,0.0255
GGTGCTG,-0.014,-0.00672,0.0693,0.769,-0.0768,1.43,0.0749,-0.0205,-0.154,-0.0444
GGATTAC,-0.0282,0.0659,0.488,0.887,-0.064,1.78,0.0703,-0.00188,0.0724,0.0845
GCGGAGG,0.0983,0.13,0.259,0.818,0.0749,1.02,0.0827,0.00376,-0.102,-0.112
CCCTTGT,-0.227,-0.0546,-0.166,-0.734,0.0502,-0.964,-0.795,0.0425,-0.0313,-0.122
ATAGTGG,0.0344,0.00958,-0.238,-0.143,0.0401,-0.976,0.158,0.0396,0.0711,-0.00167
AAAGATC,0.0592,0.0663,0.18,0.26,0.0932,0.532,0.219,0.153,0.0264,0.118
ACAGGAC,0.148,0.153,0.479,1.36,0.0153,1.04,0.315,0.175,0.0877,0.189
ATTACTT,-0.499,-0.706,-0.139,-2.54,0.155,-0.417,-2.97,0.0429,0.125,0.0581
GGGGTAG,-0.0209,-0.00512,0.77,1.76,-0.0883,2.05,0.207,0.0248,-0.0492,0.108
AATTAAA,-0.409,-0.178,-0.167,-0.734,-0.0226,-0.722,-0.629,0.0321,-0.0156,-0.048
CACACAG,0.0474,-0.00066,-0.683,-0.463,0.0995,-0.942,0.181,0.0387,-0.00936,0.0109
TACCTAC,0.0601,-0.0759,-0.299,-2.09,0.0919,-0.648,-0.776,-0.0695,0.00606,0.0569
AGAGAAC,0.05,-0.121,0.158,0.39,0.0899,0.343,-0.00491,0.0293,0.0243,-0.0484
AGTTGCG,0.0458,-0.0193,0.379,1.35,0.126,1.83,0.225,0.0332,-0.0209,0.0962
AGGAGGA,0.0938,0.19,0.406,0.961,0.0672,0.682,0.231,0.229,0.0966,0.176
CCTGTTT,-0.109,-0.105,-0.0201,-2.03,-0.113,-0.476,-0.551,-0.0602,-0.177,-0.14
CCCCTAA,-0.0338,-0.209,-0.143,-0.629,-0.0703,-0.698,-0.318,0.0171,-0.209,-0.101
CTCGATC,0.119,-0.00354,0.0036,-0.0958,-0.0598,-0.433,-0.131,-0.00379,-0.0447,-0.0391
CATGCGA,-0.0766,-0.107,-0.728,0.287,-0.0357,-0.439,0.11,-0.131,-0.0138,-0.195
TCCGATT,0.0875,-0.0753,0.259,-0.974,0.221,0.196,-0.166,0.129,0.0733,0.0626
AAACCAA,-0.0169,-0.0434,-0.000338,-1.11,-0.0725,-0.615,-0.453,-0.0205,-0.0497,-0.0738
CGGAACG,-0.129,-0.0692,-0.675,-0.466,-0.0604,-0.77,0.0779,-0.228,-0.159,-0.185
GTATTCA,-0.125,0.039,0.353,0.797,-0.00273,1.66,0.0518,0.0465,0.06,0.161
CGGAGGA,-0.0517,-0.214,0.289,0.594,-0.0599,0.506,0.0186,0.0395,0.0402,0.0556
GGGTCTG,0.162,0.158,0.743,1.73,0.00468,2.12,0.192,0.0601,0.0164,0.118
TTCCACC,-0.0883,-0.168,0.049,-0.385,-0.0567,-0.0832,-0.313,-0.0967,-0.0906,-0.0836
GCAGTTC,-0.102,-0.116,-0.0528,-0.122,-0.0146,-0.241,-0.0262,-0.0556,-0.0115,-0.065
GTCAAAC,0.0407,0.102,0.344,0.916,0.108,1.47,0.0795,0.144,0.0358,0.119
GTGTAAG,0.215,0.163,-0.13,-0.154,0.0828,-0.415,0.272,0.0263,0.145,0.0904
